In all, about 110,000 compounds were measured (“z-score”: median about -0.1, highest 2% from about 2 on). Some of the results follow. Active and inactive are the calls of the source.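 The calls were made as follows: active = z-score in the third read window above 3 or below -3; inactive = the rest.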

Our source for the z-score values is PubChem BioAssay AID488969 (Vanderbilt High Throughput Screening Facility, 2010).

In the test the target is Metabotropic glutamate receptor 8 (Rattus norvegicus) (UniProt P70579). In words: rat mGluR8 modulators via GIRK flux, primary screen, cell-based, thallium flux, HTS (AID 488969). Conditions: HEK293 rat mGluR8, GIRK (G protein-gated inwardly rectifying potassium channel) thallium flux, FluoZin2; at 10 µM; stronger effect = higher value; submaximal glutamate (EC20) added with thallium.
UniProt P70579, sequence (P70579 whole entry, looked up): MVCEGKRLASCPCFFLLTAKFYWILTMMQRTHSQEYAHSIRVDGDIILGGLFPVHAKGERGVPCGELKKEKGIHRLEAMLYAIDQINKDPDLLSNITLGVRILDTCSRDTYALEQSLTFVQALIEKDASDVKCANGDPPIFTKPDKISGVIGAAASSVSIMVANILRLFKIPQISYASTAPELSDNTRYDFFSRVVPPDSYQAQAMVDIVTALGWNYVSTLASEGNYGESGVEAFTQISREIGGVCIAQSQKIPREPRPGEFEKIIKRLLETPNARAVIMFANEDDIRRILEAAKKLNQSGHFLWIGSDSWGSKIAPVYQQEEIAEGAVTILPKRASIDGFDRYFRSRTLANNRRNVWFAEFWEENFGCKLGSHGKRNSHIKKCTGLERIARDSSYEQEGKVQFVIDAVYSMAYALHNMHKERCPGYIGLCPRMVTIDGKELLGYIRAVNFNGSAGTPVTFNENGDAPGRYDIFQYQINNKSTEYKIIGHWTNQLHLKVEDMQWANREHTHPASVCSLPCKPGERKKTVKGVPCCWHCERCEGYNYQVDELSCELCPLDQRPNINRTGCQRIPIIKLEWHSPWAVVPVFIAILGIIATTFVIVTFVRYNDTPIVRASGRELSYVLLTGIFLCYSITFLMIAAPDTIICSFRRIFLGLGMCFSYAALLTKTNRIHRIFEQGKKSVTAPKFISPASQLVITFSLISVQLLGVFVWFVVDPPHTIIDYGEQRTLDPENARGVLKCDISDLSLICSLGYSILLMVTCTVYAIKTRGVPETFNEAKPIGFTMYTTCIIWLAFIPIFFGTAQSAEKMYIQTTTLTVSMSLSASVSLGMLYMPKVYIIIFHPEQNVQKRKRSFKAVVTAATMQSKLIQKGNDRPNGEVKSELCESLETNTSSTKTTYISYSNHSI
Molecule `CCC(=O)NC(=S)NNC(=O)c1ccc([N+](=O)[O-])cc1` had a z-score of 0.17.
Then `FC(F)(F)c1cccc(CNc2ncccc2-c2nc3cc(Cl)ccc3o2)c1`, with -0.967; and `C=CCNC(=S)N/N=C(\C)c1ccccn1`, with 0.458.
Molecule `CCOCCCNC(=O)C(NC(=O)CC1NC(=O)NC1=O)c1ccc(Cl)cc1` (configuration not stated) yielded a z-score of -0.134.
The result for `COc1ccc(CNC(=O)C2CC(c3cccc([N+](=O)[O-])c3)=NO2)cc1` (configuration not stated) reads -0.232; that for `CCOc1ccc(S(=O)(=O)Nc2ccccc2C(=O)NCc2ccco2)cc1`, -0.0697.
Molecule `COC(=O)c1c(C(=O)OC)c(-c2ccccc2)n2c1CS(=O)C2` (configuration not stated) yielded a z-score of -0.0256.
Turning to `COCCn1c(=NC(=O)c2ccc3c(c2)OCO3)c(C#N)cc2c(=O)n3cccc(C)c3nc21`, the z-score was -0.381.
Regarding `COc1ccc(N2C(=O)C3ON(C4SC(=S)N(C)C4(C)C)C(c4ccc([N+](=O)[O-])cc4)C3C2=O)cc1` (configuration not stated), the z-score came to 0.0385.
With `O=C(CSc1nc(O)c(Cc2ccccc2)c(=O)n1-c1ccccc1)N1CCOCC1`, the z-score is -0.384.
Molecule `COC(=O)CN1C(=O)C(O)(CC(=O)c2cccc(Br)c2)c2ccccc21` (configuration not stated) yielded a z-score of -0.712.
`Cc1ccccc1N1CCN(c2ncnc3c2cnn3Cc2ccc(Cl)cc2)CC1`: the z-score was -0.365.
Then `O=C(COc1ccccc1)NCCn1ccc2ccccc21`, with 0.194.
`CC(=O)C1=C(C)NC(=O)NC1c1cccs1` (configuration not stated) showed a z-score of 0.13.
With `CCOc1ccc(S(=O)(=O)NN)cc1`, the z-score was 0.289.
With `COCCCNC(=O)CN(c1cccc(Cl)c1C)S(C)(=O)=O`, the z-score was -0.42.
The result for `Cc1ccccc1C(=O)Nc1ccc(S(=O)(=O)N2CCN(C)CC2)cc1` reads 0.151.
Then `O=C(Nc1ccccc1)/C(=C\c1cccs1)NC(=O)c1ccccc1`, with 0.0528; and `CC(C)Oc1ccc(C(=O)O)c(C(=O)O)c1`, with -0.253; and `Cc1ccc(OP(=O)(Nc2c(C)n(C)n(-c3ccccc3)c2=O)Oc2ccc(C)cc2)cc1`, with -0.0249.
The result for `COc1cc(NC(=S)NC(=O)CC(C)C)ccc1NC(=O)c1cc2ccccc2o1` reads -0.173; that for `NC(=O)c1ccc(C23CC4CC(CC(C4)C2)C3)o1`, 0.63; that for `O=C(CSc1ccc2c(c1)OCCO2)NCc1ccco1`, -0.187.
Molecule `CN1CCN(C(=O)c2ccc3c(=O)n(Cc4ccco4)c(=S)[nH]c3c2)CC1` registered a z-score of 0.757.
On to `NC(=O)Nc1cccc2ccccc12`, for which the z-score is active: 4.53.
The result for `N#Cc1c(-c2ccccc2)cc(-c2ccccc2)nc1Br` reads -0.0927.
The result for `CS(=O)(=O)N(CC(=O)Nc1ccc(C(N)=O)cc1)C1CCCCC1` reads 1.83; that for `CCOc1ccc(S(=O)(=O)NCCCN2CCOCC2)c2ccccc12`, -0.107.
Then `CCN(CC)S(=O)(=O)c1ccc2c(c1)nc(SCC(N)=O)n2-c1ccc(OC)cc1`, with -0.217; and `O=C(CCCCn1c(=O)c2ccccc2n(CC(=O)NC2CCCC2)c1=O)NCc1ccco1`, with -2.63; and `CCc1nc2ccc(C)cc2c(C(=O)NC2CCCCC2C)c1C` (configuration not stated), with -0.15.
Molecule `CCONC(=NC)c1nonc1N` yielded a z-score of 0.00929.
Then `O=C1CCCC/C1=C\Nc1ccc(O)cc1`, with -0.274; and `Cc1ccc(SCCC(=O)Nc2ccccc2C(=O)N2CCOCC2)cc1`, with -0.0515.
Then `Cc1cccc([N+](=O)[O-])c1NC(=O)CN(Cc1ccccc1)Cc1ccccc1`, with 0.0209; and `CC(COC(=O)c1ccccc1)(COC(=O)c1ccccc1)/[N+]([O-])=C/c1ccccc1`, with 0.278; and `COC(=O)c1c(C)[nH]c(C)c1-c1ccccc1Cl`, with -0.649.
The result for `Cc1ccc(C2(O)CN(c3ccccc3C)C3=[N+]2CCS3)cc1` (configuration not stated) reads -0.263; that for `CCOc1ccc(Br)cc1S(=O)(=O)Nc1ccc(NC(=O)c2ccccc2C)cc1`, 0.0175.
The molecule `COc1ccc(OC)c(/C=N/NC(=O)CNC(=O)c2ccc(S(=O)(=O)N3CCOCC3)cc2)c1` had a z-score of -0.0737.
The result for `CN(C)CCCN=Cc1c(O)n(Cc2ccccc2)c(=O)c2ccccc12` reads 1.02; that for `CCSC1=C(C#N)C(c2ccc3c(c2)OCO3)C2=C(CCCC2=O)N1` (configuration not stated), 0.00991; that for `CCCCN(C(=S)NC(=O)c1ccccc1)c1c(N)n(Cc2ccccc2)c(=O)[nH]c1=O`, 0.0917.
The result for `CCc1nc(-c2ccccc2O)n(-c2ccccc2)n1` reads 0.592.
Then `CC(C)(C)c1cc(C(C)(C)C)cc(S(=O)(=O)CCc2ccccn2)c1`, with -0.26; and `CCCCN1CC(C(=O)NCc2ccc(C)cc2)CC1=O` (configuration not stated), with -0.238.
In turn, `Cc1ccc(S(=O)(=O)NCC(=O)NC2CCCC2)cc1` had a z-score of 0.347.
The result for `C/C(=N\Nc1nc(C)cc(-c2ccccc2)n1)c1ccc(C)o1` reads 0.868; that for `O=C(c1cccc(S(=O)(=O)N2CCCC2)c1)N1CCN(c2ccccc2)CC1`, -0.141.
Then `CC(=O)Nc1ccc(NC(=O)CSc2ncnn2-c2ccccc2)cc1`, with -0.475; and `CC1CCN(c2c([N+](=O)[O-])nn(-c3ccc4c(c3)OCCO4)[n+]2[O-])CC1`, with -1.02.
The result for `COc1cccc(/C=C2/SC(=O)N(CC(=O)N3CCc4ccccc4C3)C2=O)c1OCC(=O)O` reads -0.567.
As for `CC1CCCCC1NC(=O)Cn1ncc2ccccc21` (configuration not stated), the z-score was -0.159.
Then `CC1CCc2c(C(=O)OCC(=O)Nc3cccc(S(=O)(=O)N4CCCCCC4)c3)csc2C1` (configuration not stated), with -0.197.
Then `O=C(Nc1nc(-c2ccccc2)cs1)c1cccc(S(=O)(=O)N2CCN(Cc3ccccc3)CC2)c1`, with -1.01.
The result for `Cc1ccc(Oc2ccc(Cl)cc2NC(=O)c2cnccn2)cc1` reads -0.112; that for `CCCn1c(SCC(=O)N2CCN(c3ccccc3)CC2)nc2ccccc2c1=O`, -0.496; that for `CCOC(=O)CSc1nnc(-c2ccc(S(=O)(=O)N3CCOCC3)cc2)n1-c1ccccc1`, -0.721.
Consider `O=S(=O)(NCC(c1cccnc1)N1CCN(c2ccccc2)CC1)c1cc(F)ccc1F` (configuration not stated), for which the z-score was -0.321.
Then `CCOC(=O)c1cc2c(=O)n3ccccc3nc2n(CC2CCCO2)c1=NC(C)=O` (configuration not stated), with 0.259; and `CC(=O)Nc1ccc(C(=O)N(C)C(C(=O)Nc2ccc(C)cc2)c2ccccn2)cc1` (configuration not stated), with -0.326.
Then `C=CCn1c(SCC(=O)Nc2ncc(Cc3cc(C(F)(F)F)ccc3Cl)s2)nnc1-c1ccncc1`, with -0.424.
Molecule `CCc1nc2ccccc2n1CC(=O)N(C(C)CC)C1CCS(=O)(=O)C1` (configuration not stated) displayed a z-score of 0.248.
The result for `O=C(CN1C(=O)/C(=C2\SC(=S)N(C3CCS(=O)(=O)C3)C2=O)c2ccccc21)Nc1ccccc1` (configuration not stated) reads -0.491.
The result for `CCC(CC)c1nnc(NC(=O)c2cc([N+](=O)[O-])ccc2N2CCCCC2)s1` reads -0.059; that for `CCC(C)c1ccc(NC(=S)NN2CCOCC2)cc1` (configuration not stated), -0.131; that for `COC(=O)c1cc(-c2cccc(OC)c2)n[nH]1`, -0.426.
